Test results published in PubChem BioAssay AID1479 (National Center for Advancing Translational Sciences (NCATS), 2009).
Out of some 280,000 compounds screened, about 820 (0.29%) were called active. Inconclusive means that the source gave no clear call. Such entries were picked first, then a sample of the others. The call rests on the fitted dose curve; in most records, active means well fitted curve in either direction with a large enough effect; inconclusive means small, poorly fitted or top-dose-only effect; inactive means flat fitted curve, though single readings scatter. No potency is given beside an inconclusive call; the fits are too rough.

Assay: Total Fluorescence Counterscreen for Inhibitors of the Interaction of Thyroid Hormone Receptor and Steroid Receptor Coregulator 2
Conditions: TRb/SRC2 Texas Red total fluorescence interference; series mostly up to 106 µM
Outline: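 Flags fluorescent or light-absorbing compounds by total fluorescence, S + 2P, at 555 nm excitation and 632 nm emission. Mixture: 20 nM Texas Red SRC2 peptide, 0.6 uM human TRb LBD, 1 uM T3, 5% DMSO; compound exposure 5 h at ambient temperature.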
On the % scale 0 is the no-effect control and ±100 the full control effect; potency means the concentration at half of the fitted maximal effect; tags describe the fitted curve by direction and shape or compound fluorescence and quenching.

| SMILES | Potency | fluorescence change, negative = quenching |
| --- | --- | --- |
| Cc1ccc(CNC(=O)c2ccc3c(c2)NC(=O)C(CS(=O)(=O)Cc2cccc(F)c2)N3)cc1 (configuration not stated) | inconclusive [falling, partial curve, poor fit] | – |
| CC(=O)c1ccc(NC(=O)c2cc3c(=O)oc4ccc(C)cc4c3s2)cc1 | inconclusive [falling, full curve, poor fit] | – |
| Cc1ccc(Cl)cc1NC(=O)N1CCC(CN2CCc3ccccc3C2)CC1 | inconclusive [quencher, full curve] | – |
| Nc1c(C(=O)NCC2CCCO2)sc2nc3c(c(-c4ccco4)c12)CC/C3=C\c1ccco1 (configuration not stated) | active: 11.2 µM [quencher] | – |
| CCOc1cc(CNc2ccc(O)cc2)cc(Cl)c1OCc1ccccc1 | inconclusive [falling, full curve, poor fit] | – |
| Cc1ccc(CSc2nc3ccc(NC(=O)C(C)C)cc3s2)cc1 | inconclusive [quencher, partial curve] | – |
| C/C(CC(=O)Nc1ccccn1)=N\NC(=O)c1ccc(C)cc1 | inactive | – |
| COc1ccccc1N1CCN(C2CCN(C(=O)c3cccs3)CC2)CC1 | inactive | – |
| COc1cccc2c1C(=O)c1c(O)c3c(c(O)c1C2=O)C[C@@](O)(C(=O)CO)C[C@@H]3OC1CC(N)C(O)C(C)O1 (some centres not stated) | active: 31.6 µM [fluorescent] | – |
| C(=Nc1ccc(Nc2ccccc2)cc1)c1ccc2ccccc2c1 | inconclusive [falling, full curve, poor fit] | – |
| CC(=O)c1c(C)oc2ccc(N(C(=O)Oc3ccccc3)S(=O)(=O)c3ccc(C(C)(C)C)cc3)cc12 | inconclusive [falling, full curve, poor fit] | – |
| CCC(C)NC(=O)c1ccc(-n2c(-c3ccccc3)cc3c2CCCC3)cc1 (configuration not stated) | active: 1.78 µM [quencher] | – |
| N#C/C(=C/c1ccc([N+](=O)[O-])cc1)C(N)=O | inactive | – |
| Cc1ncc(CO)c(/C=N/NC(=O)c2ccc(Br)cc2)c1O | inactive | – |
| COc1cccc(NC(=O)CN(C)CC(=O)Nc2ccc(Br)cc2)c1 | inactive | – |
| COCCN1C(=O)c2[nH]nc(-c3ccccc3O)c2C1c1ccc(OCc2ccccc2)c(OC)c1 (configuration not stated) | inconclusive [falling, full curve, poor fit] | – |
| Cc1ccc(S(=O)(=O)c2cnc(SCC(=O)Nc3cc(C)cc(C)c3)nc2N)cc1 | inconclusive [quencher, full curve] | – |
| COC(=O)c1ccccc1NC(=O)Cn1cc(S(=O)(=O)Cc2ccccc2F)c2ccccc21 | inconclusive [quencher, full curve] | – |
| Cc1ccc(OC(=O)c2cccc([N+](=O)[O-])c2)c(-n2nc3ccccc3n2)c1 | inconclusive [falling, partial curve, poor fit] | – |
| COc1cccc(CN(Cc2ccco2)c2cnc(S(C)(=O)=O)nc2C(=O)Nc2cccc(Cl)c2C)c1 | inconclusive [falling, full curve, poor fit] | – |
| O=S(=O)(Nc1nc2ccccc2nc1Nc1cccc(S(=O)(=O)N2CCCCC2)c1)c1ccccc1 | inactive | – |
| C=CCNC(=O)N1CCc2nc(CCCC)c3c(c2C1)CO[C@@H](C)C3 | – | inactive: -1.13% [at 11.2 µM] |
| COc1cccc(Cn2nnc3c(=O)[nH]c(C4CCCN(C(=O)c5ccc(C)cc5)C4)nc32)c1 (configuration not stated) | inconclusive [falling, full curve, poor fit] | – |

| SMILES | Potency | fluorescence change, negative = quenching |
| --- | --- | --- |
| CC(C)(C)NC(=O)C(c1ccncc1)N(C(=O)Cn1nnc(-c2ccc(F)cc2)n1)c1ccccc1F (configuration not stated) | inconclusive [rising, single point] | – |
| CCN(C(=O)CSc1ncc(S(=O)(=O)c2ccc(C)c(Cl)c2)c(=O)[nH]1)c1cccc(C)c1 | inconclusive [quencher, full curve] | – |
| O=S(=O)(c1ccc2ccccc2c1)n1nc(-c2ccco2)nc1NCc1ccc(F)cc1 | inconclusive [falling, full curve, poor fit] | – |
| Cc1cc(NC(=O)CCCn2c(C)c3cnn(-c4ccccc4)c(=O)c3c2C)ccc1Br | inactive | – |
| CC(C)CN=Cc1c(O)c([N+](=O)[O-])cc2oc3c(c12)CCCC3 | inconclusive [falling, partial curve, poor fit] | – |
| O=S(=O)(NC1CCCCC1Oc1ccccc1)c1ccccc1 (configuration not stated) | inconclusive [falling, full curve, poor fit] | – |
| O=C(CSc1nnc(SCc2ccccc2)s1)N/N=C/C=C/c1ccco1 | inconclusive [quencher, partial curve] | – |
| Cc1cc(=O)oc2cc(Oc3ccc(C(N)=O)cc3[N+](=O)[O-])ccc12 | inactive | – |
| CC(C)Oc1ccc(CNC(=O)CN2C(=O)c3cccnc3Oc3ccc(Cl)cc32)cc1 | active: 20 µM [quencher] | – |
| O=C(NN=C1CCN(Cc2ccccc2)CC1)c1cc2ccccc2cc1O | inconclusive [falling, partial curve, poor fit] | – |
| O=C(O)c1ccccc1NS(=O)(=O)c1ccc(NNC(=S)Nc2ccc(OC(F)F)cc2)c([N+](=O)[O-])c1 | inconclusive [quencher, partial curve] | – |
| Cc1ccc(NC(=O)CSc2nnc(-c3cc4occc4n3C)n2-c2ccccc2C)c(C)c1 | inconclusive [quencher, full curve] | – |
| Oc1c(Cl)cc(Cl)c2cccnc12 | inactive | – |
| S=C(NCCc1ccccc1)N/N=C/c1ccccc1Cl | inconclusive [falling, full curve, poor fit] | – |
| COc1ccc(S(=O)(=O)c2cc3cc(C(C)(C)C)cc(O)c3oc2=O)cc1 | inconclusive [quencher, full curve] | – |
| CC(=O)c1ccc(NC(=O)c2cc3c([nH]c2=O)CC(c2ccccc2)CC3=O)cc1 (configuration not stated) | inconclusive [falling, partial curve, poor fit] | – |
| CC(C)CC(=O)Nc1ccc(C(=O)NNC(=S)NC(=O)C2CCCCC2)cc1 | inactive | – |
| CC(C)CN(c1ccccc1)S(=O)(=O)c1nnc(NC(=O)C2CCCCC2)s1 | active: 4.47 µM [quencher] | – |
| COc1ccc(NC(=O)CCCN2C(=O)/C(=C\c3ccco3)SC2=S)cc1 | inconclusive [quencher, partial curve] | – |
| c1cc2c(cc1-c1csc(NNC3=NCCCCC3)n1)OCCO2 | inactive | – |
| CCCCNC(=O)c1ccc2c(c1)NC(=O)C(C(C)C)N2 (configuration not stated) | active: 0.0562 µM [quencher] | – |
| COc1cccc(NC(=O)CN2C=NS(=O)(=O)c3ccccc32)c1 | inconclusive [falling, partial curve, poor fit] | – |
| CCOC(=O)CC(NC(=O)c1cc2c(=O)n3cccc(C)c3nc2s1)c1ccc(OCC(C)C)c(OC)c1 (configuration not stated) | inconclusive [falling, full curve, poor fit] | – |

| SMILES | Potency | fluorescence change, negative = quenching |
| --- | --- | --- |
| Cc1cc(SCC(=O)c2cc3ccccc3o2)nc2ccccc12 | inconclusive [rising, partial curve, poor fit] | – |
| CCN(CC)S(=O)(=O)c1nnc(NC(=O)COc2cccc(C)c2)s1 | active: 3.16 µM [quencher] | – |
| S=C(S)NCCNC(=S)S | inconclusive [rising, single point] | – |
| O=C(NCC(c1cccnc1)N1CCN(Cc2ccccc2)CC1)C(=O)Nc1cccc(F)c1 (configuration not stated) | active: 0.251 µM [quencher] | – |
| O=c1c(Cl)c2oc3ccccc3nc-2c2ccccc12 | inactive | – |
| Cc1ccc(C)c(NC(=O)C(Cc2ccccc2)N2Cc3ccccc3C2=O)c1 (configuration not stated) | active: 126 µM [quencher] | – |
| O=C(/C=C/c1cccs1)NC(=S)NNC(=O)c1ccccc1O | inactive | – |
| COc1cccc(-c2cc(C(F)(F)F)n3ncc(C(=O)N4CCc5ccccc5C4)c3n2)c1 | inconclusive [rising, single point] | – |
| Cc1ccc(N2C(=O)CSC23C(=O)N(CC(=O)NCc2ccccc2)c2ccccc23)cc1 (configuration not stated) | inconclusive [falling, partial curve, poor fit] | – |
| O=C(CCCN1C(=O)c2cccnc2Oc2ccc(Cl)cc21)NCc1ccc(F)cc1 | inconclusive [quencher, full curve] | – |
| COC(=O)c1cn(C(=O)c2ccccc2)c2ccccc12 | inconclusive [rising, single point] | – |
| CCOC(=O)c1c(NC(=O)C2c3ccccc3Oc3ccccc32)sc2c1CCC(CC)C2 (configuration not stated) | inconclusive [quencher, full curve] | – |
| Nc1c(C(=O)NCc2ccco2)c2nc3ccccc3nc2n1CCc1ccccc1 | inactive | – |
| CCc1ccc2occ(CC(=O)Nc3ccc(OC)c(Cl)c3)c2c1 | active: 0.0891 µM [quencher] | – |
| Cc1ccc2c(c1)NC(=O)c1cccnc1N2 | inactive | – |
| Cc1ccc(OCC(=O)Nc2c(C(=O)c3ccc(Cl)cc3)oc3ccccc23)cc1C | inconclusive [falling, full curve, poor fit] | – |
| COc1ccc(CNC(=O)CC(C)CC2=NS(=O)(=O)c3ccccc3N2)cc1 (configuration not stated) | inconclusive [falling, full curve, poor fit] | – |
| CCC(=O)N1CCc2cc(CNC(=O)Nc3cc(OC)c(OC)c(OC)c3)ccc21 | inactive | – |
| CCCCn1c(SCc2ccccc2C)nc2ccsc2c1=O | inactive | – |
| COC(=O)Cc1[nH]n(-c2nc3ccccc3s2)c(=O)c1C(C)=Nc1ccc(C)cc1 | inactive | – |
| CCCCNC(=O)c1onc(CSc2ccccc2)c1C(=O)O | inactive | – |
